# Measurements: the supplement of paper PMC3334620
# The full ranking holds about 33,000 sequences; the median of “E-score (-0.5 to 0.5)” is about -0.012, and the highest 2% start at about 0.29. The list shows a part of the results.
# Biological target: T1, Ybr033w (UniProt P38073)
# T1 sequence: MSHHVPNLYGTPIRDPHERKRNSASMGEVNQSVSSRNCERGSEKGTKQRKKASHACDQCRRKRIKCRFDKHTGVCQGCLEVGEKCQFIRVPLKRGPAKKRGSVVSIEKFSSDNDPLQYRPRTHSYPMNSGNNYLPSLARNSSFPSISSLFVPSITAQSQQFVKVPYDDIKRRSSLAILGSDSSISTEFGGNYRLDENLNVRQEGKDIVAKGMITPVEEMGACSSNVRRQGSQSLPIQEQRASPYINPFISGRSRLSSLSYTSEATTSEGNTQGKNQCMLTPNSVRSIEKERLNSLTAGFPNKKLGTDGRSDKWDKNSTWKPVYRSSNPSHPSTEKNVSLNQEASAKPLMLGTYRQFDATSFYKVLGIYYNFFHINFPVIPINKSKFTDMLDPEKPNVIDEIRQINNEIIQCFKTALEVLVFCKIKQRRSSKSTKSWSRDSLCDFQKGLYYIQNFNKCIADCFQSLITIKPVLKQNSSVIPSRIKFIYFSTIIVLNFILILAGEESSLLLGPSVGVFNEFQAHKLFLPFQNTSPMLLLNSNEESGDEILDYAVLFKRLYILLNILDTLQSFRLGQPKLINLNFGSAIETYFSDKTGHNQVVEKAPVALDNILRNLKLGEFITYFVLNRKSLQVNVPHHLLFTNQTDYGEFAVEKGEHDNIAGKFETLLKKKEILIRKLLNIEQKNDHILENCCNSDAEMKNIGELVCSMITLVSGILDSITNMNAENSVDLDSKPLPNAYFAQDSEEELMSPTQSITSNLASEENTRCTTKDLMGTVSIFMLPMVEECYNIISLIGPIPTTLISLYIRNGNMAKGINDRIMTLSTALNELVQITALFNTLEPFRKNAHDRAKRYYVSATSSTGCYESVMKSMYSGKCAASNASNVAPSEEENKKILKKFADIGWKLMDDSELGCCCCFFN
# Assay: PBM E-score (8-mer binding enrichment) (E-score (-0.5 to 0.5)); higher = stronger / more preferred TF binding; most listed sequences are background and not binding sites
# Details: protein concentration: 200 nM; construct: GST-full length
# In short: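 Using PURExpress in vitro transcription/translation, GST-tagged yeast transcription factors were made in full-length or DNA-binding-domain form. These were applied at about 100-200 nM to double-stranded universal all-10-mer Agilent arrays, and bound protein was detected with fluorescent anti-GST. Scans were normalised with masliner before the Universal PBM Analysis Suite assigned E-scores to ungapped eight-base words pooled with their reverse complements.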
row,Sequence,PBM E-score
1,GGTCTCGA,-0.174
2,GACGGTCA,-0.232
3,ACCGAGGC,-0.355
4,AAGCACCG,-0.0861
5,GCGCCTGA,-0.0486
6,CACTGGAC,-0.0397
7,ATAGGGAT,0.053
8,GTCACAAC,-0.0588
9,CGACGGAA,0.00785
10,GCGAGGAC,-0.264
11,CTTGCTTC,-0.0347
12,AGTTCATA,0.26
13,TCCCGGGA,-0.152
14,ACTACTTA,0.142
15,CTCTGGAA,0.0566
16,ACAACAAA,0.217
17,CCTCGGCA,-0.0312
18,GGCCAGAA,-0.00503
19,CAGACGAA,0.198
20,CGCTTCGA,0.0293
21,CCGAGATA,0.167
22,CGAGCAAA,0.032
23,AAACCGCG,0.169
24,CGCGGTCC,-0.212
25,CATGCTTC,0.108

row,Sequence,PBM E-score
1,AAATGAAC,0.208
2,GACAGATA,0.0702
3,GTCATTAA,0.203
4,CAGCTACG,-0.0621
5,GCCACGTA,-0.127
6,CCCGCAGC,-0.116
7,GGGAAATA,0.137
8,CTATCTGC,-0.0829
9,GGCAGTTA,-0.102
10,CAACGGCA,-0.137
11,GATCGCAA,0.0983
12,CACCTGGG,-0.153
13,AGTGATGG,-0.103
14,AGCCACGA,-0.228
15,ATGGTAAC,0.108
16,CCATCGAC,-0.146
17,GAACGTCC,0.00444
18,AACTATGA,0.102
19,TAGAAAAA,0.227
20,AGGCCATA,-0.0784
21,ACTTAGTG,0.00959
22,ATCGATAC,0.133
23,AGGATAAC,-0.109
24,CTACGCAA,-0.0154
25,CCTAGCAG,-0.224

row,Sequence,PBM E-score
1,GTTGGTTA,0.105
2,AGTTTACG,0.0475
3,AGTCTTAT,0.082
4,AGTGCAAC,0.0301
5,GTGTGGTA,-0.0585
6,GTGCTCGA,-0.249
7,AAACGCAA,0.153
8,GAGCATCC,-0.219
9,CGCAATAC,0.0993
10,ATACGGCC,-0.134
11,CGGACATA,0.0376
12,CCCCATCG,-0.117
13,GAGATGAC,-0.106
14,GGTCGATA,-0.11
15,CGACTCCA,0.0825
16,GTGGTGCA,-0.124
17,GCCGATCC,-0.0704
18,GCCAAATA,0.00135
19,AACCAGAC,-0.133
20,CCATCTGC,0.0735
21,ACATGCAC,0.0537
22,GACAGCCC,-0.1
23,CCGTAGGC,-0.291
24,GTCACCGA,-0.034
25,CTGATTAC,0.135

row,Sequence,PBM E-score
1,GGATAGTA,0.206
2,TATTAGCA,0.224
3,CGTTGGTA,-0.0605
4,CTGTATTA,0.117
5,AGTCTCAT,-0.0855
6,CACATGTA,-0.0333
7,CCCAGTTA,-0.0098
8,ACCGCCCG,-0.225
9,AAGTCGGG,-0.196
10,ATAATATC,0.28
11,GACTTTGA,-0.0389
12,CCCAGTGA,-0.194
13,CTAGGGAA,-0.131
14,CTATTGGA,0.111
15,CTCGACAC,-0.144
16,CGCAACAC,-0.101
17,GCGCAACC,-0.099
18,GCGCATAC,-0.0915
19,GGTCTAGA,-0.0247
20,CATTACGG,-0.084
21,CACGGTAA,0.081
22,CCGATATA,0.0768
23,GTTCCCAA,-0.00185
24,CGCTAGCC,-0.294
25,CTCCTCAA,-0.203

row,Sequence,PBM E-score
1,AATTATTA,0.359
2,CTCCCCAA,-0.291
3,CCGTTCAG,-0.176
4,AGTTGCCG,-0.175
5,CTTAGGCC,-0.248
6,ATCTAAAG,0.0585
7,ACGTCTAA,0.0249
8,CCTTTTCG,0.00344
9,ACACAGGC,-0.119
10,GAACGTTA,-0.115
11,GGATACTA,0.151
12,AAGAGTGG,-0.147
13,GGAACCAA,0.0624
14,GATCCCCC,-0.272
15,CCGTCCAG,-0.231
16,CCGCGTAG,-0.0434
17,TAACGCAA,0.0647
18,GATGATGC,-0.148
19,GTGCCATA,-0.0929
20,GCTAAGCC,-0.146
21,AGTCCTGG,-0.276
22,AGCACTCG,0.0425
23,CGCATCTC,-0.0636
24,ACCCGTCG,-0.294
25,AGGAAAGA,0.0561

row,Sequence,PBM E-score
1,AACTTTGA,0.188
2,CAAAGATG,0.0453
3,TCCTCGCA,-0.0442
4,CCATCCTC,-0.0473
5,CGCGGAAA,-0.0669
6,CAGCGACA,-0.121
7,GACCCATC,-0.329
8,GAAACACA,0.159
9,CATTTCGG,-0.0324
10,CGCAGAAC,-0.0551
11,CTGCTGCA,-0.0834
12,ATCAAGAC,0.0411
13,AGTTTGAC,0.0221
14,CCACTTCC,0.0269
15,ACGGATAA,0.276
16,CAGTGTCA,-0.046
17,CCACGCTA,-0.237
18,CTCTACGA,-0.0937
19,AGCCTCCG,-0.229
20,TACATAGA,0.0247
21,AACCGGCG,-0.033
22,AGAGGGGA,-0.16
23,GTCTCACA,-0.0716
24,AAGTCATA,0.204
25,GATACTAA,0.246

row,Sequence,PBM E-score
1,GATTGGAA,0.0684
2,ACGCAAGA,0.0917
3,GCAACCGC,-0.00536
4,ATGGAAAG,0.122
5,ACAGGTTG,-0.123
6,CCGTTTCA,-0.117
7,CGCTCCCC,-0.429
8,TCCTCAAA,0.0737
9,TATGCAAA,0.142
10,GGCCGACC,-0.266
11,AATGCATC,0.0507
12,AGAATATA,0.134
13,AACGGGCA,-0.204
14,AAATGCTA,0.155
15,AGGGTAAT,0.0853
16,ACGATTCA,0.0564
17,ACTCAGTG,0.00352
18,CCTCGTCA,-0.0154
19,CCCTGTAA,0.0539
20,CTAGTTGA,0.193
21,CTCACTAC,0.157
22,AAAAAGCT,0.0352
